# In PubChem BioAssay AID1347165 (National Center for Advancing Translational Sciences (NCATS), 2019):
# The campaign covered roughly 220,000 compounds. About 5,700 (2.6%) were called active. Inconclusive results, whose numbers are uncertain, are shown with a selection of clear calls. The call rests on the fitted dose curve; in most records, active means well fitted inhibition curve with a large enough effect; inconclusive means small, poorly fitted or top-dose-only effect; inactive means no such curve, though single readings can be large or run the other way. Potencies of inconclusive entries are doubtful fits and often do not repeat.
# Molecular target: Lysine-specific demethylase 5B (Homo sapiens) (UniProt Q9UGL1)
# Sequence of UniProt Q9UGL1 (Q9UGL1 whole entry, looked up): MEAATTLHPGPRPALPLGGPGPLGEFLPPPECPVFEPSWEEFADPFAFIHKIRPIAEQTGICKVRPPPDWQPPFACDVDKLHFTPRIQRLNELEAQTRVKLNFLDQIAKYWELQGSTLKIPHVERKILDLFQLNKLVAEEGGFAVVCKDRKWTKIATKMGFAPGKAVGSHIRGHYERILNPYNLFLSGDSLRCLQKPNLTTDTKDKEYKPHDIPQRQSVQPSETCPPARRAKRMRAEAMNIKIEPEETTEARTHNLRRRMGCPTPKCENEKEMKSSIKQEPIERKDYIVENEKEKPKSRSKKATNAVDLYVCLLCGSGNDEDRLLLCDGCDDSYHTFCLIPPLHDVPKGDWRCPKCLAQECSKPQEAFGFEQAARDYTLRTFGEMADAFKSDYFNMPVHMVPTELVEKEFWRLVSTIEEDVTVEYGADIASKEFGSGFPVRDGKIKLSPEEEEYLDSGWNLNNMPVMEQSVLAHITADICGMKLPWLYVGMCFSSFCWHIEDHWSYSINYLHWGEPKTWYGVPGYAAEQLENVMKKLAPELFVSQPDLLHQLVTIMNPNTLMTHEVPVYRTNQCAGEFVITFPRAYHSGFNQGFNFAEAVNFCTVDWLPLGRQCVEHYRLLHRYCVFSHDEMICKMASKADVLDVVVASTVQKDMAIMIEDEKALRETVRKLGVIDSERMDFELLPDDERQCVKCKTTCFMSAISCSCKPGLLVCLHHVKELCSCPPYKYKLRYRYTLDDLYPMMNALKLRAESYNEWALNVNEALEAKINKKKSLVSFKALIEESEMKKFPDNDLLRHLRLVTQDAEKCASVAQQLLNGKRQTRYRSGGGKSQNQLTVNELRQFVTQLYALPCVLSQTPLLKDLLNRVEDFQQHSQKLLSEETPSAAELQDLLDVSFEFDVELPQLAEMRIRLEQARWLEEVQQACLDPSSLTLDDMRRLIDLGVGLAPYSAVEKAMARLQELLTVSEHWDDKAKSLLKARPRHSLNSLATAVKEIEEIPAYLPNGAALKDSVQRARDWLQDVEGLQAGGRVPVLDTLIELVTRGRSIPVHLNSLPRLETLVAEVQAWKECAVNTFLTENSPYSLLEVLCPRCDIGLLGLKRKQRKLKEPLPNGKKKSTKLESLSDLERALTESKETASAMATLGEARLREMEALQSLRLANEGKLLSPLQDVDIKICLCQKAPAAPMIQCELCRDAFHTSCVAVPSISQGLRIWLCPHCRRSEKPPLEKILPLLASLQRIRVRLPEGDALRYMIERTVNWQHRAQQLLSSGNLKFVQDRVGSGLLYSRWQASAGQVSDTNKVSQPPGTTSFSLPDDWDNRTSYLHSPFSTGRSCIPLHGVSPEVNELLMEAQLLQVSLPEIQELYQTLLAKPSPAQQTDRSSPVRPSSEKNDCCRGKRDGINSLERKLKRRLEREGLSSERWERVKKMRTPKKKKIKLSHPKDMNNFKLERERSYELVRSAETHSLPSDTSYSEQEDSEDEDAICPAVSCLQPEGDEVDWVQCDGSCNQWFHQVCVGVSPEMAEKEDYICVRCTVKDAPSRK
# Assay: Primary screen for KDM5B Histone Demethylases FDH-coupled qHTS; further: nearly all actives have a fitted effect of over 70% in size; on activity change, negative = inhibition: 0% is about no effect
# Conditions: FDH-coupled NADH fluorescence (FDH is formaldehyde dehydrogenase); activity change, negative = inhibition: at 57.7 µM (top of the series) unless noted
# How it was run: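 KDM5BΔAP (200 nM final) in 50 mM HEPES pH 7.5, 0.01% Tween-20 was preincubated 10 min at RT with compound over a concentration range. Substrate mix (H3K4me3 12.5 µM, α-KG 25 µM, Fe²⁺, ascorbate, NAD⁺, FDH) was added, and NADH fluorescence change over 30 min gave dose-response curves.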
# Potency means the concentration at half of the fitted maximal effect; tags describe the fitted curve by direction and shape.
Structure (SMILES),Potency,"activity change, negative = inhibition"
CCc1nc2sc(C(C)=O)c(N)c2c2c1CCCC2,"inconclusive: 20 µM [inhibitor, partial curve, poor fit]",
COc1ccccc1CNC(=O)c1ccc2nc(CCc3ccccc3)oc2c1,"inconclusive: 17.8 µM [inhibitor, partial curve, poor fit]",
COc1ccc(Cn2c(=O)c3cccnc3n(Cc3cccc(F)c3)c2=O)cc1,"inconclusive: 31.6 µM [inhibitor, partial curve, poor fit]",
O=C1Nc2ccc(-c3ccc4c(c3)OCO4)cc2C(=O)N2CCN(C(=O)c3cccs3)C[C@H]12,"inconclusive: 28.2 µM [inhibitor, single point]",
CC(C)Oc1ccc(-c2nc3c(C#N)c[nH]n3c2NC2CCCCC2)cc1,"inconclusive: 17.8 µM [inhibitor, single point]",
CC(C)NC(=O)CC[C@@H]1CNC(=O)[C@@H]2C[C@H](NC(=S)NCc3ccco3)CN12,"inconclusive: 31.6 µM [inhibitor, partial curve, poor fit]",
Cc1nc(N(C)C2CCCCC2)ncc1C(C)NC(=O)C1(CO)CC1 (stereo not given),"inconclusive: 22.4 µM [inhibitor, single point]",
COCCO[C@H]1C(=O)N(C2CCN(Cc3ccc(C#N)cc3)CC2)[C@H]1c1ccncc1,"inconclusive: 25.1 µM [inhibitor, partial curve]",
N#Cc1ccc(C(=O)NCc2nnc3ccc(-c4ccccc4)nn23)cc1,"inconclusive: 31.6 µM [inhibitor, partial curve, poor fit]",
CCOC(=O)CNC(=O)c1ccccc1OCC,,inactive: 0.311%
Cc1ccccc1C(=O)n1nc(-c2cccnc2)nc1NCc1ccccc1,,inactive: 0.194%
CNC(=O)[C@@H]1CN(Cc2ccncc2)C[C@H]1COC,"inconclusive: 22.4 µM [inhibitor, partial curve]",
NC(=O)c1ccccc1NCC1CC1(Cl)Cl (stereo not given),"inconclusive: 10 µM [inhibitor, partial curve, poor fit]",
CCn1cc2nc(SCC(=O)Nc3ccccc3C(F)(F)F)n(Cc3ccc(C)cc3)c(=O)c2n1,"inconclusive: 0.794 µM [inhibitor, full curve, poor fit]",
CCCCC1c2cc(c(O)cc2O)C(CCCC)c2cc(c(O)cc2O)C(CCCC)c2cc(c(O)cc2O)C(CCCC)c2cc1c(O)cc2O (stereo not given),,inactive: -16.1%
Cc1ccc(C(=O)Nc2ccc3c(c2)CCC3)s1,,inactive: -10.9%
COC(=O)[C@@H]1Cc2c([nH]c3ccccc23)[C@H]2C[C@@H](N3CCOCC3)C[C@@H](c3ccc(OC(F)(F)F)cc3)N21,"inconclusive: 14.1 µM [inhibitor, partial curve, poor fit]",
Cc1cccc(CSC2=NS(=O)(=O)c3ccccc3N2Cc2ccccc2)c1,,inactive: -6.71%
O=C(NCC(=O)N1CCCCCC1)C1CCCN(S(=O)(=O)c2ccc(Cl)cc2)C1 (stereo not given),,inactive: 18.7%
COc1ccc(C2CC(=O)c3cc(-c4nc(-c5ccc(Cl)cc5)cs4)c(=O)[nH]c3C2)cc1OC (stereo not given),"inconclusive: 12.6 µM [inhibitor, partial curve, poor fit]",
Cc1ccccc1CN1CCc2ncc(C(=O)Nc3ccccc3)n2CC1,,inactive: -12% [at 86.2 µM]
COc1ccc2nc(NC(=O)c3c(C)noc3C)sc2c1,"inconclusive: 28.2 µM [inhibitor, single point]",

Structure (SMILES),Potency,"activity change, negative = inhibition"
O=C1NC2(CCN(Cc3ccc(F)cc3)C2)COc2ccccc21 (stereo not given),"inconclusive: 35.5 µM [inhibitor, single point]",
COC[C@H]1CCCN1[C@@H]1[C@H](O)[C@H](CO)O[C@@H]1CNCc1ccc(F)cc1,"inconclusive: 28.2 µM [inhibitor, partial curve, poor fit]",
Cc1cc2oc(=O)cc(COC(=O)CCCN=C3NS(=O)(=O)c4ccccc43)c2cc1C,,inactive: -11.1%
COc1ccc(-c2cc(N3CCCN(C(=O)c4ccc(NC(C)=O)cc4)CC3)n[nH]2)cc1,,inactive: 10%
COc1ccc(-c2nc(C#N)c(N3CCC(C(N)=O)CC3)o2)cc1OC,"inconclusive: 5.01 µM [inhibitor, full curve, poor fit]",
Cc1cc(F)ccc1NS(=O)(=O)c1ccc(-c2cnc(C3CC3)o2)cc1,,inactive: -9.67%
CN1CC(=O)N(C2CCC2)Cc2c1ncnc2N1CCC(c2ccccc2)CC1,,inactive: -5.83%
CCOc1cccc(-c2nc(-c3c[nH]c(C(=O)N4CCCC4)c3)cs2)c1,"inconclusive: 14.1 µM [inhibitor, partial curve, poor fit]",
C(=N\Nc1ccc2nncn2n1)/c1ccccn1,"inconclusive: 31.6 µM [inhibitor, partial curve, poor fit]",
O=C(NC1CCCCC1)N1Cc2[nH]cnc2C[C@H]1c1nc(-c2cccc([N+](=O)[O-])c2)no1,active: 3.98 µM,
CC1(C)Cc2c(C#N)c(OCC(=O)Nc3cccc(Cl)c3)nc(N3CCOCC3)c2CO1,"inconclusive: 39.8 µM [inhibitor, single point]",
Cc1ccc(Cn2c(C(C)NC(=O)c3ccccc3)nc3ccccc32)cc1 (stereo not given),,inactive: -5.03%
O=c1c2cc(Br)ccc2nc(-c2cccc(Cl)c2)n1O,"inconclusive: 20 µM [inhibitor, partial curve, poor fit]",
C#CCNC(=O)C[C@@H]1c2nc(NC(=O)c3ccc(OC)cc3)sc2C[C@@H]2[C@](C)(CO)[C@H](O)CC[C@]21C,"inconclusive: 35.5 µM [inhibitor, single point]",
CC(C)(C)n1nnnc1C1CC2(CCOCC2)C(=O)N1Cc1ccco1 (stereo not given),"inconclusive: 11.2 µM [inhibitor, partial curve, poor fit]",
CC(C)(C)C(=O)NCc1c[nH]c2ncccc12,,inactive: -29.5% [at 86.2 µM]
COc1ccc(-c2ccc(C(=O)N[C@H](c3ccccn3)C3CC(O)C3)o2)cc1 (stereo not given in full),,inactive: -5010%
COc1ccc(NC(=O)[C@@H]2C[C@@H](c3ccc(F)cc3)N(CCOc3ccccc3)C2)cc1,"inconclusive: 35.5 µM [inhibitor, single point]",
COc1ccc(-c2cc3ccc(O)c(CN4CCC(C)CC4)c3oc2=O)cc1OC,"inconclusive: 25.1 µM [inhibitor, partial curve, poor fit]",
Cc1c2c(=O)n(-c3ccc(Cl)cc3)[nH]c2cc(=O)n1Cc1ccc(Cl)cc1,"inconclusive: 39.8 µM [inhibitor, single point]",
Cc1ccc2cc(/C=C/C(=O)NC3CCCCC3)oc2c1,,inactive: -2.21%
COc1ccc(NC(=O)Nc2c(NC3CCCCC3)c3ccccc3oc2=O)c(OC)c1,,inactive: -8.45%

Structure (SMILES),Potency,"activity change, negative = inhibition"
CCS(=O)(=O)NCC1(COCCOC)C[C@@H](O)[C@@H](O)C1 (stereo not given in full),"inconclusive: 39.8 µM [inhibitor, single point]",
CCc1noc(-c2cccn3c(CNC(=O)c4cc(F)ccc4F)nnc23)n1,active: 28.2 µM,
O=C(CC1CCN(S(=O)(=O)c2cccs2)C1)NCc1ccccc1 (stereo not given),,inactive: -10%
CCCOc1cc(OCCC)c2c(=O)cc(-c3ccccc3)oc2c1,,inactive: -2.57%
CN1CCN(c2nc3c(S(=O)(=O)c4ccc(Br)cc4)nnn3c3ccsc23)CC1,,inactive: -16.2%
COc1cccc(CN2CCc3nc(N4CCN(c5ncccn5)CC4)ncc3C2)c1,"inconclusive: 39.8 µM [inhibitor, single point]",
O=C(c1ccc(F)c(F)c1)N1CCC2(CC1)N=C(c1ccc(Cl)cc1)NO2,"inconclusive: 25.1 µM [inhibitor, single point]",
O=C(Cn1cc(SCc2ccc(C(F)(F)F)cc2)c2ccccc21)N1CCCC1,"inconclusive: 31.6 µM [inhibitor, partial curve, poor fit]",
O=C(Nc1ccc2c(c1)CCC2)c1cc(F)c(F)cc1Cl,,inactive: 1.92%
COc1ccccc1CC(=O)N1CCCc2ncc(C(=O)Nc3ccc4[nH]ccc4c3)cc21,"inconclusive: 35.5 µM [inhibitor, single point]",
CCCN(C(=O)Cn1nc(Cc2ccncc2)c2ccccc2c1=O)c1ccccc1F,,inactive: 18.2%
O=C(c1cc(Cl)ccc1F)N1CCN(c2cc(-c3cccs3)[nH]n2)CC1,"inconclusive: 20 µM [inhibitor, partial curve, poor fit]",
COc1ccc(CN2Cc3cc(NC(=O)c4ccc5c(c4)OCO5)ccc3OC(C)C2=O)cc1 (stereo not given),"inconclusive: 35.5 µM [inhibitor, partial curve, poor fit]",
CC(NC(=O)COc1ccc(Cl)c(Cl)c1)c1ccccc1 (stereo not given),,inactive: -6.28%
COc1ccc(/C=N/NC(=O)c2ccccc2O)cc1Cn1nnc2ccccc21,"inconclusive: 35.5 µM [inhibitor, single point]",
COc1ccc(-c2cc(C(=O)NCc3ccc(F)cc3)c3c(-c4ccc(F)cc4)[nH]nc3n2)cc1OC,"inconclusive: 14.1 µM [inhibitor, partial curve, poor fit]",
CC1=C[C@@H](CNC(=O)CC(C)(C)CC(=O)O)[C@H](C(C)C)C[C@H]1Cc1nc2ncccc2[nH]1,"inconclusive: 39.8 µM [inhibitor, single point]",
CC(=O)c1ccc(NC(=O)CSc2cn(CC(=O)N3CCCCCC3)c3ccccc23)cc1,"inconclusive: 0.708 µM [inhibitor, full curve, poor fit]",
CCOC(=O)c1cccc(NC(=O)c2ccc3c(c2)N(CC)C2CCCCN2C3=O)c1 (stereo not given),"inconclusive: 25.1 µM [inhibitor, partial curve, poor fit]",
O=C1[C@@H]2C[C@@H](CN2Cc2ccc(Cl)cc2)Oc2ccccc2N1Cc1ccccc1,"inconclusive: 31.6 µM [inhibitor, partial curve, poor fit]",
COc1ccc(OC)c(-c2nc(CN3CCCC(C(C)(C)O)C3)c(C)o2)c1 (stereo not given),active: 20 µM,
